Measured values reported in patent publication US20170296668A1, “METHODS OF INCREASING SOLUBILITY OF POORLY SOLUBLE COMPOUNDS AND METHODS OF MAKING AND USING FORMULATIONS OF SUCH COMPOUND” (VIZURI HEALTH SCIENCES LLC, priority 2009, published 2017).
In brackets after ≈: the same amount, converted by molar mass. Like-named read-outs stand apart in the source and are kept apart here. Blank lines part the entries; values can stand above or below the molecule they belong to.

Legend:
[1] = Nonoxynol-9 concentrates via thermal treatment process; format: physicochemical
[2] = Solubility in Polysorbate 80 via thermal treatment process
[3] = Solubility in PEG 400 / PEG 300 via thermal treatment process
[4] = cited from earlier work
[5] = Supersaturation test by addition of a crystal; conditions: Room Temp., crystal addition
[6] = Solubility in Ceteareth-20 via thermal treatment process; conditions: thermal treatment >200° C.
[7] = Aqueous solution clarity: water added to concentrate vs non-concentrate method
[8] = Apigenin solubility in nonionic surfactants via high temperature processing method; conditions: thermodynamic from solid

- Prepared Thermal Treatment Concentrate in Nonoxynol-9 ([1]; Table XVII): 10 mg/mL
- Prepared Thermal Treatment Concentrate in PS80 ([2]; Table XVII): 10 mg/mL
- Prepared Thermal Treatment Concentrate in PEG-400 ([3]; Table XVII): 10 mg/mL
SMILES: CC(C)CCC[C@@H](C)[C@H]1CC[C@H]2[C@@H]3CC=C4C[C@@H](O)CC[C@]4(C)[C@H]3CC[C@]12C [Cholesterol]

- PS80 Solubility: amount solubilized, remained solubilized @ Room Temp. ([2]; thermal treatment): 10 wt %
- PEG400 Solubility: amount solubilized, remained solubilized @ Room Temp. ([3]; thermal treatment): 10 wt %
SMILES: O=c1[nH]cc(F)c(=O)[nH]1 [Fluorouracil, reference compound]

SMILES: O=c1cc(-c2ccc(O)cc2)oc2cc(O)cc(O)c12 [Apigenin, 4′,5,7,-trihydroxyflavone]
- Prepared Thermal Treatment Concentration in Nonoxynol-9 ([1]; Table XVI): 30 mg/mL
- Apigenin Literature Solubility ([4]; Propylene Glycol): 1.0 mg/mL
- Literature Solubility in H2O @ 25° C. ([4]; Table XV): 0.001 mg/mL
- Literature Solubility in H2O @ 25° C. ([4]; Table XVI): 0.001 mg/mL
- supersaturation in Ceteareth-20 [5]: %. Not Super Saturated at Room Temp. via crystal
- Conc. In Ceteareth-20 [6]: ~10000 µg/mL
- SOLUBLE CONC. RANGE (% wt/wt) ([2]; PS80, 1. Thermal Treatment method): 4-6%
- Prepared Thermal Treatment Concentration in Polysorbate 80 ([2]; Table XV): 30 mg/mL
- solubility ([2]; polysorbate 80, organic solvent or mixture, thermodynamic from solid): 40 to 60 mg/mL (≈ 148 to 222 mM)
- DPSI PS80 Sol. Data ([2]; thermal treatment): 35 to 45 mg/mL
- Jordi PS800 Results ([2]; thermal treatment, Table III): 40.5 mg/mL
- PS80 Sol. Conc. - ([2]; thermal treatment, Table III): 40 to 60 mg/mL
- Flavonoid in Solvent - ([3]; PEG-400, HPLC, thermal treatment concentrate): 34.8 mg/mL
- Jordi PEG400 Results ([3]; thermal treatment, Table III): 34.6 mg/mL
- Comments when 17 ml of H2O was added to 3 gms of the concentrate ([7]; Nonoxynol-9 concentrate): A clear soln formed.
- Comments when 17 ml of H2O was added to 3 gms of the concentrate ([7]; Polysorbate 80 concentrate): A clear soln formed.
- solubility ([8]; Span 20, organic solvent or mixture): ~10 mg/mL (≈ 37 mM)
- solubility ([8]; Span 80, organic solvent or mixture): ~8 mg/mL (≈ 29.6 mM)
- solubility ([8]; nonoxynol-9, organic solvent or mixture): ~30 mg/mL (≈ 111 mM)
- solubility ([8]; polysorbate 20, organic solvent or mixture): ~25 mg/mL (≈ 92.5 mM)
- solubility ([8]; polysorbate 60, organic solvent or mixture): ~15 mg/mL (≈ 55.5 mM)
- solubility ([8]; polysorbate 80, organic solvent or mixture): ~50 mg/mL (≈ 185 mM)
- solubility ([8]; propylene glycol, organic solvent or mixture): ~1 mg/mL (≈ 3.7 mM)

SMILES: COc1cc(CNC(=O)CCCC/C=C/C(C)C)ccc1O [Capsaicin, reference compound]
- Prepared Thermal Treatment Concentrates in PEG-400 ([3]; Table XXI): 40 mg/mL
